This note sets out measurements from publication PMC11781671.

Amino acid sequences for entries named in this document (tags omitted).
UniProt P28360: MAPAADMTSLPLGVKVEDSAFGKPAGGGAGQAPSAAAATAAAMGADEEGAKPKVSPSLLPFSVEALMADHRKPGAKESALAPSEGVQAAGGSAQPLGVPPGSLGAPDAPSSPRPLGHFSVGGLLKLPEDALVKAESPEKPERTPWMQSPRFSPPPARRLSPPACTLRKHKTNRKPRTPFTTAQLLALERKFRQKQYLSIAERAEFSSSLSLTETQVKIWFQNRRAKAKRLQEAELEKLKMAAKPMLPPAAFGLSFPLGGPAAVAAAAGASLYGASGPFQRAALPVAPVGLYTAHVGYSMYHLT
UniProt Q8WW22: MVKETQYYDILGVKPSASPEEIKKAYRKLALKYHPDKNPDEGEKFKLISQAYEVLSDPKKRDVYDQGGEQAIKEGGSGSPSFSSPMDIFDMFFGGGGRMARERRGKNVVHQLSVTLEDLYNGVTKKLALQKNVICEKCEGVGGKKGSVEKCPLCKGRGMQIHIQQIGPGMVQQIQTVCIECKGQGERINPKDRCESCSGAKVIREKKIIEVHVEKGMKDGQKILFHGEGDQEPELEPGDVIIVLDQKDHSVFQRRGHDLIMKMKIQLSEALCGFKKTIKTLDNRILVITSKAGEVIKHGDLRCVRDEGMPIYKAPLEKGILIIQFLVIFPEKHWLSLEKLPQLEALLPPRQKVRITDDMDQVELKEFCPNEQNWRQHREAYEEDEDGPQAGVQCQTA
UniProt P03165: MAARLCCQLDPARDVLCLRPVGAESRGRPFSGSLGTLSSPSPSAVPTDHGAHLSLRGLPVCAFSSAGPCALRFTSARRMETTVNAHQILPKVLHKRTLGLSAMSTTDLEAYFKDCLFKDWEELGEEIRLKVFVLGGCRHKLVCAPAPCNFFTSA

Experiment [1] deals with Flag-tagged homeobox protein MSX-1 (MSX1) (human) (UniProt P28360). The experiment is described as follows: co-IP; Huh7 cells co-transfected with pMSX1-Flag and pHBx-HA or its control plasmid (1:1); MG132 for the last 12 h; beads not stated.
Experiment [2] has as its target Flag-tagged DNAJA4 (exogenous) (human) (UniProt Q8WW22). The experiment is described as follows: co-IP; Huh7 cells co-transfected with a Flag-tagged host protein plasmid and an HBx plasmid; MG132 for the last 12 h; precipitated with anti-Flag beads.
The target of experiment [3] is T1, Flag-tagged CRYAB (exogenous) (human) (UniProt P02511).
T1 sequence: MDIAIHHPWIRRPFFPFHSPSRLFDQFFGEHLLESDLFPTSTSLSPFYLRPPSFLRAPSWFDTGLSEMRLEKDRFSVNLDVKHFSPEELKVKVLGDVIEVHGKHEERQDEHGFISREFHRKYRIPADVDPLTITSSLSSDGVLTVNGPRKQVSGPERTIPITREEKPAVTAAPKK
The experiment is described as above.

For experiment [4], the target named is HA-tagged HBx (hepatitis B virus X protein, HBV genotype D) (Hepatitis B virus genotype D) (UniProt P03165). The experiment is described as follows: co-IP; Huh7 cells co-transfected with a Flag-tagged host protein plasmid and pHBx-HA; MG132 for the last 12 h; precipitated with anti-HA beads.
For experiment [5] the target is unchanged. The experiment is described as follows: co-IP; Huh7 cells transfected with pHBx-HA; endogenous CRYAB detected.

No constants are given. Whether binding was seen depends on the method and setting. Binding seen in cells or lysates may run through a third protein. Some entries that bind do so weakly or less than the wild type. For part of these data: Where a sequence is shown, tags or fusion partners need not be part of it.

With “HA-tagged HBx (hepatitis B virus X protein, HBV genotype D) (from UniProt P03165 1-154)”, the binding result was “no binding” in experiment [1], “no binding” in experiment [2] and “binds” in experiment [3].
As to “Flag-tagged DNAJA4 (exogenous) (from UniProt Q8WW22 1-397)”, the binding result in experiment [4] is listed as “no binding”.

B1: Flag-tagged CRYAB (exogenous) (protein, UniProt P02511 1-175)
chain: T1 sequence
Take B1: the binding result in experiment [4] was “binds”.

B2: endogenous CRYAB (protein, UniProt P02511 1-175)
chain: T1 sequence
In the case of B2, the binding result in experiment [5] is reported as “binds”.
